The record followed here is paper PMC6459857 (Nature Communications, 2019).

Experiment [1] concerns the target T1, Cdk2/cyclin A binary complex (human, UniProt P24941; P20248 fragment). Kind of experiment: cell-based or functional assay.
Experiment [2] deals with T1, Cdk2/cyclin A binary complex. Kind of experiment: SPR; BIACORE 3000, 25 °C; p27-KID constructs covalently attached (EDC/NHS) to a CM-4 chip; Cdk2/cyclin A, cyclin A or Cdk2 flowed over at 50 µl/min in 10 mM Tris pH 8.0, 300 mM NaCl, 1 mM EGTA, 5 mM DTT, 0.1 mg/mL BSA, 0.005% Tween20; 1:1 (Langmuir) model, KD = kd/ka; apparent KD. The note with it: both partners purified.

Experiment [3] has as its target T2, truncated human cyclin A (residues 173–432) (human, UniProt P20248 fragment).
T2 construct: truncated human cyclin A, residues 173–432; source: E. coli, purified (Ni2+-NTA, His-tag removed with thrombin, gel filtration)
The description is as above. The following applies: both partners purified.

The target of experiment [4] is T1, Cdk2/cyclin A binary complex. Kind of experiment: ITC; 10 µM p27 or p27 Y to E variants injected into 1 µM Cdk2/cyclin A binary complex; 20 mM HEPES pH 7.5, 300 mM NaCl, 2 mM TCEP; experiments from 5 to 25 °C in intervals of 5 °C (temperature of the tabulated values not stated); single-site binding model. The note with it: both partners purified. A general note: Isothermal titration calorimetry measures the heat released or taken up as one component is titrated into another.

B1: pY74/pY88-p27-KID (domain or fragment)
chain: not shown
modifications: phosphotyrosine at 74 and 88
notes: The NMR methods call this sample 'pY74/pY88-p27' among the p27-KID constructs; also called dual Y-phosphorylated p27-KID; source: E. coli, purified; phosphorylated with Src-KD, ATP and Mg2+ (told for pY74/pY88-p27)
As for B1, in experiment [1], the “IC50 of inhibition of the kinase activity of Cdk2/cyclin A toward histone H1” value came out at 29 nM. For the same molecule, the Kd in experiment [2] was below 2.9 nM; in experiment [3], below 52 nM.

B2: pY88-p27-KID (domain or fragment)
chain: not shown
modifications: phosphotyrosine at 88
notes: also called Y88-phosphorylated p27-KID; source: E. coli, purified
As to B2, in experiment [1], the “IC50 of inhibition of the kinase activity of Cdk2/cyclin A toward histone H1” value turned out to be 12 nM. For the same molecule, the Kd was below 2.9 nM in experiment [2] and below 52 nM in experiment [3].

B3: p27 (full length, Y89F) (natural protein)
chain: not shown
notes: p27Kip1 (p27), human, […] (full length); also called p27^Kip1; p[…]F; source: E. coli, purified (Ni2+-NTA, His-tag removed with thrombin, reverse-phase HPLC over C4 resin)
In experiment [4], B3 registered a Kd of 4.9 nM and a dH of -50.6 kcal/mol.

B4: p27-KID (p27-KID-Y89F) (domain or fragment)
chain: not shown
Take B4: the “IC50 of inhibition of the kinase activity of Cdk2/cyclin A toward histone H1” value in experiment [1] turned out to be 2.8 nM.
